Test results reported in paper PMC4336329 (PLoS ONE, 2015).
About 14,000 (4.5%) of roughly 310,000 compounds showed an effect of 50% or more. Effects have a minus sign here. The list shows a part of the results.

molecular target: human ether-à-go-go-related gene (hERG) potassium channel (human, UniProt Q12809); assay: primary screen, population patch clamp on CHO cells stably expressing hERG
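Also: peak tail current of the secondary pulse compared with the same well before compound.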

human ether-à-go-go-related gene (hERG) potassium channel, sequence (Q12809 whole entry, looked up): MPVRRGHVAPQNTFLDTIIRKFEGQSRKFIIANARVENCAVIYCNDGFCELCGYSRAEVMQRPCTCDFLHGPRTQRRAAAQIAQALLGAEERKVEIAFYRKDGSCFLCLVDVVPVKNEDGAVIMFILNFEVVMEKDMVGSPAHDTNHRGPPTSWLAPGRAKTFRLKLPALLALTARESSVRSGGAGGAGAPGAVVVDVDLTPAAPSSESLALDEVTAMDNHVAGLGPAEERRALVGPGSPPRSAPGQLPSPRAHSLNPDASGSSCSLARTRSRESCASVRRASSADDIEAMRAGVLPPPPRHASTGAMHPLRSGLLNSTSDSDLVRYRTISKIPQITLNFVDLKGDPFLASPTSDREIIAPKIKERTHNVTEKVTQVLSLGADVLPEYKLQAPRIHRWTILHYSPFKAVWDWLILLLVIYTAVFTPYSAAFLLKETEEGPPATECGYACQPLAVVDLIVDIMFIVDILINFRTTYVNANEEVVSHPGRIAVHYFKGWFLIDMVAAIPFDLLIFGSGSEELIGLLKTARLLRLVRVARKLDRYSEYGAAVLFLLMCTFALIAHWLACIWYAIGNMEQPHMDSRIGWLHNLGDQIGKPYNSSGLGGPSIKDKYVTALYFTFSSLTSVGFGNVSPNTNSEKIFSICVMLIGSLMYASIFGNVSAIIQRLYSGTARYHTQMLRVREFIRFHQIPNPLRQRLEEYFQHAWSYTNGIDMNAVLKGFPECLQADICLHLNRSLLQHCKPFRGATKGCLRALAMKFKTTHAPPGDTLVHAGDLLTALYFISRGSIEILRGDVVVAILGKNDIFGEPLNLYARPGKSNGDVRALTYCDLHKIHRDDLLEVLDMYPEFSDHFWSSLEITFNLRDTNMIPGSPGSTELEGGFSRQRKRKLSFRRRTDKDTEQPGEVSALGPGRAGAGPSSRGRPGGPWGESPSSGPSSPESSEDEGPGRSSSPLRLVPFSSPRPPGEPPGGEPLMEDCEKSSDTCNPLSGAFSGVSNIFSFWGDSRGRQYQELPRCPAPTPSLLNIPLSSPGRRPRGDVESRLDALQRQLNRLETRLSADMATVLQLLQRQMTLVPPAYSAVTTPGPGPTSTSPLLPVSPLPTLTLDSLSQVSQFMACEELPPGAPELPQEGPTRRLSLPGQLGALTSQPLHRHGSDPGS

Row | SMILES | hERG current change (%, negative = inhibition) at 10uM [%]
1 | Cc1ccc(/C(N)=N/OC(=O)c2ccc3c(c2)OCO3)cc1 | -7.81
2 | Clc1ccc(-c2nnc(N3CCCC3)nn2)cc1 | 10.8
3 | Cc1nnc(SCC(=O)NC2CCCCC2)n(N)c1=O | -3.9
4 | CN1CCN(C2=NC3(CCCC3)C(C#N)C(=O)N2)CC1 (stereo not drawn) | 6.7
5 | CO/N=C(/CS(=O)c1ccc(Br)cc1)c1ccc(OC)cc1 (stereo not drawn) | -24.1
6 | O=C(Nn1c(=O)[nH]c2ccccc2c1=O)c1ccco1 | -3.87
7 | COc1cccc(OC)c1C(=O)Nc1nc(N)n(-c2ccccc2)n1 | 1.74
8 | Cc1cccc(NC(=O)Nc2ccc(Cl)cc2)n1 | 15.3
9 | O=C(CSc1nc2sc3c(c2c(=O)[nH]1)CCC3)NCCO | 3.33
10 | COc1ccc2c(c1)c(-c1csc(N)n1)c(C)n2C | 5.5
11 | COC(=O)CC1COc2ccccc2N1C(=O)c1ccc(Cl)cc1 (stereo not drawn) | -13.9
12 | CC(C)C[C@H](NC(=O)c1ccc(OC2CCN(C(=O)C3CC3)CC2)cc1)C(N)=O | 0.679
13 | CCCC(C(=O)NC1CCCC1)N(CCN(CC)CC)C(=O)c1snc(C(N)=O)c1N (stereo not drawn) | -1.12
14 | CCCOc1ccc(C2c3c(oc4cc(C)c(C)cc4c3=O)C(=O)N2CCCN(C)C)cc1OCC (stereo not drawn) | 7.65
15 | CC1CCC/C(=C\Nc2ccc(O)cc2)C1=O (stereo not drawn) | -0.0111
16 | COc1ccc(NC(=O)C/C(C)=N/NC(=O)C(=O)NC2CCCCC2)c(OC)c1 | -8.46
17 | Cc1ccnc2nc(C(=O)OCC(=O)Nc3ccccc3C(C)(C)C)nn12 | -1.85
18 | Cc1ccc(NC(=O)CSc2ccccc2NC(=O)c2ccccc2)cc1Cl | 4.25
19 | O=C(Nc1cccc(S(=O)(=O)N2CCOCC2)c1)C1CCCN(C(=O)c2ccc(Cl)cc2)C1 (stereo not drawn) | -32.4
20 | O=C(NNc1ncnc2sccc12)c1ccc(Cl)cc1 | 23.1
21 | O=C(c1ccccc1OCc1ccc(Cl)cc1)N1CCN(c2ccccn2)CC1 | -42.4
22 | CC1CN(c2cc3nccnc3cc2F)CC(C)O1 (stereo not drawn) | -2.42

Row | SMILES | hERG current change (%, negative = inhibition) at 10uM [%]
23 | Cc1c(CN(C)C)c2c(n1Cc1ccccc1)C(=O)c1ccc(Br)cc1-2.Cl | -74.5
24 | COc1ccc(Nc2cc(NCCCO)c([N+](=O)[O-])c3nonc23)cc1 | 17.7
25 | CCn1c(=O)c2cc(C(=O)Nc3cc(C)on3)sc2c2ccccc21 | -13.6
26 | CCN(CC)S(=O)(=O)c1ccc(O)c(C(=O)OCC(=O)N(C)Cc2ccccc2)c1 | -55.4
27 | CCN1C(=O)/C(=C/C=C2/Sc3ccc4ccccc4c3N2CCO)SC1=S | 10
28 | COc1ccc(Br)cc1/C=N/NC(=O)CNC(=O)C1COc2ccccc2O1 (stereo not drawn) | 2.06
29 | NS(=O)(=O)c1ccc(NC(=O)/C=C/c2cn(-c3ccccc3)nc2-c2cccc(Cl)c2)cc1 | 44.1
30 | O=C(Nc1ccc(OCC(F)(F)C(F)F)c(C(F)(F)F)c1)c1ccccc1O | 9.65
31 | Cc1cc2cc(CN(CCN3CCOCC3)C(=O)Nc3ccccc3F)c(=O)[nH]c2cc1C | -24.5
32 | O=C(NCc1ccccc1)c1ccc(Cl)c(NC2=NC3CS(=O)(=O)CC3S2)c1 (stereo not drawn) | -0.123
33 | Cc1cc(C)c2c(C)nn(C3CCCCC3)c2n1 | 8.89
34 | COc1cc(CN2CC(=O)N(c3ccccc3Cl)C2=S)cc(OC)c1OC | 17.7
35 | O=S(=O)(NCc1ccccc1)c1ccc(F)cc1Br | -12.3
36 | CC1CC(C)(C)CC(=O)C1C(=O)c1ccccc1 (stereo not drawn) | 16.4
37 | CS/C(=N\S(=O)(=O)c1cccs1)Nc1ccc(Cl)cc1 | -13.8
38 | O=C(Nc1ccc(F)cc1)Nc1ccc(S(=O)(=O)N2CCCC2)cc1 | 6.23
39 | Cc1cccc(C)c1NC(=O)COC(=O)CCc1ccc(S(=O)(=O)N2CCCCC2)cc1 | -1.8
40 | Cc1cccc(NC(=O)NC2CCCCCCC2)c1 | 2.16
41 | Cc1nn(-c2ccccc2)c(N2CCCC2)c1/C=N/O | -11.4
42 | COCCCNC(=O)c1ccccc1C(F)(F)F | 2.69
43 | COc1ccccc1COCC(O)CNCC1(N2CCCCC2)CCCCC1.O=C(O)C(=O)O (stereo not drawn) | -30.9
44 | O=C(CCNC(=O)N1CCn2c1nc1ccccc12)NCc1ccc(Cl)cc1 | -36.3

Row | SMILES | hERG current change (%, negative = inhibition) at 10uM [%]
45 | Cc1nonc1CC(=O)N1CCc2c([nH]c3ccccc23)C1c1ccccc1F (stereo not drawn) | 21.4
46 | O=C(NC1CC1)C1CCN(Cc2cnn(-c3ccccc3)c2-n2cccc2)CC1 | -23.5
47 | COc1cccc(C(=O)Nc2cccc3c2ccc2cccn23)c1 | 25.2
48 | CCOC(=O)c1cc2n(n1)C(C(F)(F)F)CC(C)N2 (stereo not drawn) | 10.4
49 | CCOC(=O)CSc1nc2sc(C)c(C)c2c(=O)n1N | 14.6
50 | COC(=O)C1=C(C(=O)OC)[C@@H]2N(Cc3ccccc3)c3ccccc3[C@@]23C[C@@H](C(=O)OC)N(C(C)=O)C3=N1 | -0.809
51 | OC(C#CCN1CCCC1)(c1ccccc1)c1cccnc1 (stereo not drawn) | -19.3
52 | O=C(NCc1ccc(Cl)cc1)c1noc2c1CCCCC2 | -9.88
53 | Cc1nnc(Nc2ccccn2)c2ccccc12 | -33.2
54 | CC(C)CC(C)N1CCC(n2nccc2NC(=O)CCc2ccccc2)CC1 (stereo not drawn) | -6.38
55 | Cc1ccc(S(=O)(=O)N2CCOCC2)cc1C(=O)OCC(=O)c1ccc(Br)cc1 | 14.7
56 | COc1ccc(-c2nc3ccc(C)cn3c2NCc2ccccc2)cc1SC1CCCCC1.O=C(O)C(F)(F)F | 0.0523
57 | Cc1ccc(NC(=O)COC(=O)c2cccnc2)c(C)c1 | 17.8
58 | O=C(NCCCN1CCOCC1)c1cc(S(=O)(=O)N2CCN(c3ccccc3)CC2)ccc1Cl | -76.6
59 | COc1ccc(OC(C)C(=O)Nc2cccc(F)c2)cc1 (stereo not drawn) | -0.525
60 | Cn1c(=O)oc2cc(NC(=O)CCl)ccc21 | 3.23
61 | CCOc1ccc2nc(N(CCN(C)C)C(=O)/C=C/c3cccs3)sc2c1.Cl | 4.24
62 | COc1cc(NC(=O)c2ccc3c(c2)OCO3)ccc1NC(=O)C(C)C | 11.3
63 | CCC1CN(C(=O)N2CCC(C(=O)NCc3ccco3)CC2)c2cc(C)ccc2O1 (stereo not drawn) | -10.7
64 | COC(=O)c1nc(-c2ccccc2)nc(-c2ccccc2)c1C(=O)OC | -7.46
65 | O=C(CCC(=O)c1ccc(-c2ccccc2)cc1)Nc1cccnc1 | -11.5
66 | COC(=O)C(C(=O)Nc1ccccc1C)C1CCCC1 (stereo not drawn) | 16.1

Row | SMILES | hERG current change (%, negative = inhibition) at 10uM [%]
67 | CC(C)(C)c1cnnn1-c1ccc(NC(=O)c2ccc3c(c2)OCO3)cc1 | -17.4
68 | CSc1cccc(N/C(=N/S(=O)(=O)c2ccccc2)NN)c1 | -13.2
69 | CCn1c(C(=O)NC(C)c2ccc3c(c2)OCCO3)cc2sccc21 (stereo not drawn) | -10.8
70 | COc1ccc(Nc2ncc(C(=O)N3CCN(Cc4ccccc4)CC3)c3ccccc23)cc1 | -10.2
71 | CCN1CCN(c2cc(=O)n(-c3cc(Cl)ccc3C)c(=O)[nH]2)CC1 | -4.48
72 | COc1ccc(S(=O)(=O)Cc2ccc(C(=O)N3CCN(c4cccc(C)c4)C(C)C3)o2)cc1 (stereo not drawn) | -44.4
73 | Cc1ccc(C(=O)CSc2nnc(COc3ccc(C#N)cc3)n2-c2ccccc2)cc1 | 11
74 | CC(=O)C(N=Nc1ccccc1)(Sc1nnc(-c2ccccc2)n1-c1ccccc1)C(=O)Nc1ccccc1 (stereo not drawn) | 3.81
75 | O=C(N/N=C/c1c(O)ccc2ccccc12)c1[nH]ncc1Br | 11.1
76 | O=C(Cc1ccc(-c2ccccc2)cc1)NCc1ccccc1 | 18.7
77 | Cc1nc2c3cnn(-c4ccccc4)c3ncn2n1 | 21.3
78 | O=C(NNC(=O)c1cc(O)c(O)c(O)c1)NC1CCCCC1 | 13.9
79 | O=S(=O)(c1ccccc1Cl)N1CCCC(c2nc(-c3cccnc3)no2)C1 (stereo not drawn) | -22.4
80 | CC(=O)N1CCN(c2ccc(S(C)(=O)=O)cc2[N+](=O)[O-])CC1 | -12.7
81 | CN(C)c1ccc(C2Nc3cccc4cccc(c34)N2)cc1 | 16.3
82 | CSCCC(NC(=O)c1ccc(Cl)c([N+](=O)[O-])c1)C(=O)N1CCN(C/C=C/c2ccccc2)CC1 (stereo not drawn) | -25.8
83 | O=C(Nc1ccc2c(c1)OCO2)C1Cc2ccccc2CN1S(=O)(=O)c1cccs1 (stereo not drawn) | 4.05
84 | Cc1ccc(-n2ncc3c(=O)[nH]c(SCC(=O)N4CCCc5ccccc54)nc32)cc1 | 1.9
85 | CCOc1ccc(C(=O)NC2CC3CCCC(C2)N3Cc2ccccc2)cc1 (stereo not drawn) | -57.5
86 | CC1O[C@@H](O[C@H](C)CC/C=C/C(=O)O)C(O)C[C@H]1O (stereo partly drawn) | 4.94
87 | COc1ccc(-c2csc3ncnc(NCCO)c23)cc1 | 8.88
